Structures are written as SMILES. About 220 (0.56%) of roughly 39,000 compounds showed activity. The list shows a part of the results.
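Also: static incubation at 37 °C against the wild-type strain, values averaged over two biological replicates.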

The assay concerns Escherichia coli K-12 BW25113. Nature of the assay: relative growth (OD600 normalised to plate interquartile mean) (fraction); higher = less growth inhibition, active = 0.2 or less. The following applies: 50 µM; LB; incubation time: overnight (16-24 h).
For `C[C@H]1CN([C@@H](C)CO)S(=O)(=O)c2ccc(-c3cncnc3)cc2O[C@@H]1CN(C)C(=O)CN(C)C`, the relative growth was inactive: 1.01.
As for `C[C@H](O)C#Cc1ccc2c(c1)O[C@@H](CN(C)C(=O)C1CCCCC1)[C@H](C)CN([C@@H](C)CO)S2(=O)=O`, the figure is inactive: 0.953; as for `C[C@H]1CN([C@@H](C)CO)C(=O)Cc2cc(NS(C)(=O)=O)ccc2O[C@@H]1CN(C)S(C)(=O)=O`, inactive: 0.977; as for `Nc1ncnc2[nH]c(=S)[nH]c12`, inactive: 1.01.
As for `C[C@H](CO)N1C[C@H](C)[C@H](CN(C)C(=O)C2CCCCC2)Oc2cc(C#CC(C)(C)O)ccc2S1(=O)=O`, the figure is inactive: 0.986.
Then `CSc1nc(C)nc2ccccc12`, with inactive: 0.992; and `COc1ccc(C#Cc2ccc3c(c2)O[C@H](CN(C)C(=O)CN2CCOCC2)[C@@H](C)CN([C@H](C)CO)S3(=O)=O)cc1`, with inactive: 1.01.
As for `C[C@H]1CN([C@@H](C)CO)C(=O)Cc2cc(NS(=O)(=O)c3ccc(F)cc3)ccc2O[C@H]1CN(C)Cc1ccncc1`, the relative growth is inactive: 1.01.
With `COc1ccccc1NC(=O)N(C)C[C@H]1Oc2ncc(Br)cc2C(=O)N([C@@H](C)CO)C[C@H]1C`, the relative growth is inactive: 0.98.
As for `COc1ccc(S(=O)(=O)Nc2ccc3c(c2)C(=O)N([C@H](C)CO)C[C@H](C)[C@H](CN(C)C(=O)CCC(F)(F)F)OCCCC[C@@H](C)O3)cc1`, the figure is inactive: 0.994; as for `O=C(Cn1nnc2ccccc2c1=O)Nc1nnc[nH]1`, inactive: 0.982.
As for `C=C1COC(=O)[C@@H]2[C@@H](CO)[C@@H](O)C[C@H]12`, the figure is inactive: 1.02.
Consider `CCC/C=C1\OC(=O)c2ccccc21`, for which the relative growth was inactive: 1.01.
Then `CN(Cc1ccccc1)C[C@H]1C[C@H](c2ccccc2)O[C@H](c2ccc(NC(=O)CCCCCCC(=O)O)cc2)O1`, with inactive: 0.995.
On to `Cc1noc(C)c1S(=O)(=O)N(C)C[C@@H]1Oc2ccc(NC(=O)Cn3cnnn3)cc2C(=O)N([C@@H](C)CO)C[C@@H]1C`, for which the relative growth was inactive: 0.995.
Turning to `CS(=O)(=O)NC[C@@]12COC[C@H]1CN(C(=O)c1cnccn1)C2`, the relative growth was inactive: 0.93.
Then `C[C@@H]1CN([C@H](C)CO)C(=O)c2cc(NC(=O)Cc3ccccc3)ccc2O[C@H]1CN(C)Cc1ccc(Oc2ccccc2)cc1`, with inactive: 1.02; and `C[C@@H]1CN([C@@H](C)CO)C(=O)Cc2cc(NC(=O)CCN3CCOCC3)ccc2O[C@@H]1CN(C)S(C)(=O)=O`, with inactive: 0.967; and `C[C@@H]1CN([C@@H](C)CO)C(=O)Cc2cc(NS(=O)(=O)c3ccccc3)ccc2O[C@H]1CN(C)S(=O)(=O)c1ccccc1`, with inactive: 0.931.
As for `C[C@H](CO)N1C[C@H](C)[C@@H](CN(C)Cc2ccc(Oc3ccccc3)cc2)Oc2c(NC(=O)Nc3ccc4c(c3)OCO4)cccc2C1=O`, the figure is inactive: 1.
Then `C[C@@H]1CCCCO[C@H](CN(C)Cc2ccc(Cl)c(Cl)c2)[C@@H](C)CN([C@H](C)CO)C(=O)c2cc(NS(=O)(=O)c3ccccc3)ccc2O1`, with inactive: 0.94; and `C[C@H]1CN([C@@H](C)CO)C(=O)c2cc(NC(=O)Cc3cn(C)c4ccccc34)ccc2O[C@@H]1CN(C)Cc1ccc(C(=O)Nc2ccccc2N)cc1`, with inactive: 0.966; and `C[C@@H]1CCCCO[C@H](CN(C)Cc2ccc(C(=O)O)cc2)[C@H](C)CN([C@@H](C)CO)C(=O)c2cc(NC(=O)Nc3cccc4ccccc34)ccc2O1`, with inactive: 1.01.
Consider `C[C@@H]1CN([C@@H](C)CO)C(=O)Cc2cc(NC(=O)Nc3ccc(C(F)(F)F)cc3)ccc2O[C@H]1CN(C)C(=O)Nc1ccc(C(F)(F)F)cc1`, for which the relative growth is inactive: 1.01.
In the case of `CCCNC(=O)Nc1ccc2c(c1)C(=O)N(C)C[C@@H](OC)[C@@H](C)CN(C(=O)C1CCOCC1)[C@H](C)CO2`, the relative growth was inactive: 0.975.
Then `CO[C@@H]1CN(C)C(=O)c2ccc(NS(=O)(=O)c3cn(C)cn3)cc2OC[C@@H](C)N(Cc2cccc(F)c2)C[C@H]1C`, with inactive: 1.01; and `Cc1noc(C)c1NC(=O)N(C)C[C@@H]1Oc2ccc(NC(=O)c3ccncc3)cc2CC(=O)N([C@@H](C)CO)C[C@H]1C`, with inactive: 0.983.
As for `CC(C)NC(=O)N[C@@H]1C=C[C@@H](CC(=O)NCCCN(C)C)O[C@H]1CO`, the figure is inactive: 1.02; as for `COc1ccc(S(=O)(=O)Nc2ccc3c(c2)C(=O)N([C@H](C)CO)C[C@@H](C)[C@@H](CN(C)Cc2ccc(C(=O)O)cc2)OCCCC[C@@H](C)O3)cc1`, inactive: 0.993.
On to `O=C(O)COCC(=O)NCc1ccco1`, for which the relative growth is inactive: 0.921.
Then `COCCCNC(=O)[C@@]1(Sc2ccc(C)cc2)CC(=O)N(Cc2ccccc2C(F)(F)F)[C@@H]1c1ccc(CO)cc1`, with inactive: 1.04; and `C[C@@H]1CN([C@@H](C)CO)C(=O)c2cc(NC(=O)CCC(F)(F)F)ccc2O[C@@H](C)CCCCO[C@H]1CN(C)S(=O)(=O)c1ccc(Cl)cc1`, with inactive: 1.05.
As for `COc1ccc(NC(=O)Nc2ccc3c(c2)C(=O)N([C@H](C)CO)C[C@H](C)[C@H](CN(C)Cc2ccc(C(=O)O)cc2)OCCCC[C@H](C)O3)cc1`, the figure is inactive: 1.02; as for `C[C@@H]1CCCCO[C@H](CN(C)Cc2ccc3c(c2)OCO3)[C@@H](C)CN([C@H](C)CO)C(=O)c2cc(NS(=O)(=O)c3ccc(Cl)cc3)ccc2O1`, inactive: 0.993.
Then `O=C(O)c1cc2ccccc2s1`, with inactive: 0.906; and `CCCNC(=O)N(C)C[C@H]1Oc2cc(-c3ccccc3F)ccc2S(=O)(=O)N([C@H](C)CO)C[C@H]1C`, with inactive: 1.02; and `COCCOC(=O)N1C(=O)[C@@]2(c3ccccc31)[C@H](c1ccc(OCCO)cc1)N1[C@H](c3ccccc3)[C@H](c3ccccc3)OC(=O)[C@H]1[C@@H]2C(=O)Nc1nc2ccccc2s1`, with inactive: 1.01.
Turning to `C[C@@H]1CCCCO[C@H](CN(C)C(=O)c2ccccc2)[C@@H](C)CN([C@H](C)CO)C(=O)c2cc(NS(=O)(=O)c3cccs3)ccc2O1`, the relative growth is inactive: 1.01.
Then `COCC(=O)N[C@@H]1C=C[C@@H](CC(=O)N2CCCCC2)O[C@H]1CO`, with inactive: 1.04; and `C[C@H](CO)N1C[C@H](C)[C@H](CN(C)C(=O)CN(C)C)Oc2cc(C#CCN(C)C)ccc2S1(=O)=O`, with inactive: 1.02.

The values above are taken from the supplement of paper PMC9446081.
